Laboratory results reported in the supplement of paper PMC4967469.

Assays:
Assay in all cases: Viability of human cancer cell lines after 72 h of drug (GDSC screen)
XMD8-85 = compound: COc1cc(N2CCN(C)CC2)ccc1Nc1ncc2c(n1)N(C)c1ccccc1C(=O)N2C [XMD8-85]; conditions: top dose 8 µM; top dose inferred
Protocol: (§1)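 Human cancer cell lines in 384-well plates, medium with 10% serum, drug for 72 h over a 256-fold dose range (nine 2-fold or five 4-fold steps up to the top dose). Adherent lines were fixed and stained with the nucleic acid dye Syto60, suspension lines read with resazurin; signal relative to control wells, capped at 0 and 100%. One two-parameter sigmoid per drug and line, fitted in a mixed model over all curves with the slope shared within a line.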

BIRB 0796 = compound: Cc1ccc(-n2nc(C(C)(C)C)cc2NC(=O)Nc2ccc(OCCN3CCOCC3)c3ccccc23)cc1 [BIRB 0796]; conditions: top dose 10 µM; top dose inferred
Protocol: as §1

VX-702 = compound: NC(=O)c1ccc(N(C(N)=O)c2c(F)cccc2F)nc1-c1ccc(F)cc1F [VX-702]; conditions: top dose 2 µM; top dose inferred
Protocol: as §1

A-770041 = compound: COc1cc(-c2nn([C@H]3CC[C@H](N4CCN(C(C)=O)CC4)CC3)c3ncnc(N)c23)ccc1NC(=O)c1cc2ccccc2n1C [A-770041]; conditions: top dose 5.12 µM; top dose inferred
Protocol: as §1

SB-525334 = compound: Cc1cccc(-c2[nH]c(C(C)(C)C)nc2-c2ccc3nccnc3c2)n1 [SB-525334]; conditions: top dose 20 µM; top dose inferred
Protocol: as §1

Shikonin = compound: CC(C)=CC[C@@H](O)C1=CC(=O)c2c(O)ccc(O)c2C1=O [Shikonin]; conditions: top dose 16 µM; top dose inferred
Protocol: as §1

BMS-536924 = compound: Cc1cc(N2CCOCC2)cc2[nH]c(-c3c(NC[C@@H](O)c4cccc(Cl)c4)cc[nH]c3=O)nc12 [BMS-536924]
Protocol: as §1

CGP-082996 (CINK4) = compound: CCNc1cc(NC2CCC(O)CC2)nc(Nc2ccc3c(ccn3Cc3ccccc3)c2)n1 [CGP-082996 (CINK4)]; conditions: top dose 5.12 µM; top dose inferred
Protocol: as §1

Wee1 inhibitor 681640 = compound: O=C1NC(=O)c2c1c(-c1ccccc1Cl)cc1[nH]c3ccc(O)cc3c21 [Wee1 inhibitor 681640]; conditions: top dose 2 µM; top dose inferred
Protocol: as §1

Olaparib = compound: O=C(c1cc(Cc2n[nH]c(=O)c3ccccc23)ccc1F)N1CCN(C(=O)C2CC2)CC1 [Olaparib]
Protocol: as §1

[1] = top dose 4 µM, screen: GDSC drug entry 1091, top dose inferred
[2] = top dose 5.12 µM, screen: GDSC drug entry 62
[3] = top dose 5 µM, screen: GDSC drug entry 1017, top dose inferred
[4] = top dose 10 µM, screen: GDSC drug entry 1495

| Cell Line | AUC (XMD8-85) | IC50 (XMD8-85) [µM] | AUC (BIRB 0796) | IC50 (BIRB 0796) [µM] | AUC (VX-702) | IC50 (VX-702) [µM] | AUC (A-770041) | IC50 (A-770041) [µM] | AUC (SB-525334) | IC50 (SB-525334) [µM] | AUC (Shikonin) | IC50 (Shikonin) [µM] | AUC (BMS-536924; [1]) | IC50 (BMS-536924; [1]) [µM] | AUC (BMS-536924; [2]) | IC50 (BMS-536924; [2]) [µM] | AUC (CGP-082996 (CINK4)) | IC50 (CGP-082996 (CINK4)) [µM] | AUC (Wee1 inhibitor 681640) | IC50 (Wee1 inhibitor 681640) [µM] | AUC (Olaparib; [3]) | IC50 (Olaparib; [3]) [µM] | AUC (Olaparib; [4]) | IC50 (Olaparib; [4]) [µM] |
| --- | --- | --- | --- | --- | --- | --- | --- | --- | --- | --- | --- | --- | --- | --- | --- | --- | --- | --- | --- | --- | --- | --- | --- | --- |
| DU-4475 (breast, suspension) | 0.904 | 7.16 | 0.987 | > 10 | 0.992 | > 2 | 0.963 | > 5.12 | 0.964 | > 20 | 0.253 | 0.232 | 0.964 | > 4 | 0.884 | 3.78 | 0.951 | > 5.12 | 0.967 | > 2 | 0.984 | > 5 |  |  |
| EB2 (Burkitt lymphoma, suspension) | 0.79 | 3.21 | 0.99 | > 10 | 0.99 | > 2 | 0.967 | > 5.12 | 0.968 | > 20 | 0.285 | 0.265 | 0.988 | > 4 | 0.972 | > 5.12 | 0.98 | > 5.12 | 0.99 | > 2 | 0.99 | > 5 | 0.988 | > 10 |
| EB-3 (Burkitt lymphoma, suspension) | 0.869 | > 8 | 0.984 | > 10 | 0.984 | > 2 | 0.833 | 4.08 | 0.931 | > 20 | 0.54 | 1.31 | 0.972 | > 4 | 0.961 | > 5.12 | 0.906 | > 5.12 | 0.982 | > 2 | 0.984 | > 5 | 0.971 | > 10 |
| EJM (lymphoid neoplasm, semi-adherent) | 0.979 | > 8 | 0.991 | > 10 | 0.991 | > 2 | 0.991 | > 5.12 | 0.923 | > 20 | 0.488 | 0.931 | 0.916 | > 4 | 0.931 | > 5.12 | 0.99 | > 5.12 | 0.98 | > 2 | 0.992 | > 5 | 0.989 | > 10 |
| EM-2 (chronic myeloid leukaemia, suspension) | 0.929 | > 8 | 0.98 | > 10 | 0.973 | > 2 | 0.569 | 0.507 | 0.957 | > 20 | 0.49 | 0.933 | 0.908 | > 4 | 0.926 | > 5.12 | 0.968 | > 5.12 | 0.941 | > 2 | 0.978 | > 5 | 0.963 | > 10 |
| EW-3 (Ewing sarcoma, adherent) | 0.956 | > 8 | 0.977 | > 10 | 0.972 | > 2 | 0.984 | > 5.12 | 0.805 | 11.8 | 0.406 | 0.531 | 0.732 | 1.28 | 0.757 | 2 | 0.984 | > 5.12 | 0.943 | > 2 | 0.916 | > 5 | 0.717 | 2.85 |
| EW-13 (Ewing sarcoma, suspension) | 0.982 | > 8 | 0.977 | > 10 | 0.919 | > 2 | 0.981 | > 5.12 | 0.904 | > 20 | 0.381 | 0.454 | 0.965 | > 4 | 0.952 | > 5.12 | 0.983 | > 5.12 | 0.982 | > 2 | 0.949 | > 5 | 0.879 | > 10 |
| EW-18 (Ewing sarcoma, suspension) | 0.985 | > 8 | 0.986 | > 10 | 0.921 | > 2 | 0.967 | > 5.12 | 0.648 | 3.31 | 0.408 | 0.55 | 0.805 | 2.18 | 0.955 | > 5.12 | 0.981 | > 5.12 | 0.937 | > 2 | 0.949 | > 5 | 0.965 | > 10 |
| GCIY (stomach, adherent) | 0.957 | > 8 | 0.984 | > 10 | 0.981 | > 2 | 0.773 | 2.25 | 0.954 | > 20 | 0.221 | 0.135 |  |  | 0.538 | 0.412 | 0.928 | > 5.12 | 0.984 | > 2 | 0.984 | > 5 |  |  |
| GDM-1 (acute myeloid leukaemia, suspension) | 0.645 | 1.23 | 0.984 | > 10 | 0.987 | > 2 | 0.945 | > 5.12 | 0.931 | > 20 | 0.64 | 2.4 | 0.655 | 0.66 | 0.384 | 0.156 | 0.872 | 4.5 | 0.985 | > 2 | 0.987 | > 5 | 0.974 | > 10 |
| HAL-01 (lymphoblastic leukaemia, suspension) | 0.736 | 2.14 | 0.961 | > 10 | 0.884 | 1.73 | 0.826 | 2.64 | 0.979 | > 20 | 0.239 | 0.197 | 0.829 | 2.1 | 0.707 | 1.13 | 0.895 | 4.95 | 0.88 | 1.66 | 0.938 | > 5 | 0.962 | > 10 |
| HC-1 (hairy cell leukaemia, suspension) | 0.883 | 7.98 | 0.975 | > 10 | 0.987 | > 2 | 0.782 | 2.05 | 0.877 | 18.8 | 0.751 | 5.08 | 0.919 | > 4 | 0.86 | 4.01 | 0.891 | > 5.12 | 0.972 | > 2 | 0.987 | > 5 | 0.937 | > 10 |
| HDLM-2 (Hodgkin lymphoma, suspension) | 0.939 | > 8 | 0.959 | > 10 | 0.969 | > 2 | 0.728 | 1.41 | 0.984 | > 20 | 0.852 | 12.1 | 0.925 | > 4 | 0.949 | > 5.12 | 0.922 | > 5.12 | 0.943 | > 2 | 0.976 | > 5 | 0.949 | > 10 |
| HH (T-cell leukaemia, suspension) | 0.79 | 4.93 | 0.948 | > 10 | 0.951 | > 2 | 0.854 | > 5.12 | 0.933 | > 20 | 0.494 | 0.958 | 0.964 | > 4 | 0.917 | > 5.12 | 0.875 | > 5.12 | 0.947 | > 2 | 0.976 | > 5 | 0.967 | > 10 |
| HT (B-cell lymphoma, suspension) | 0.884 | 7.41 | 0.969 | > 10 | 0.988 | > 2 | 0.937 | > 5.12 | 0.969 | > 20 | 0.488 | 0.932 | 0.977 | > 4 | 0.99 | > 5.12 | 0.921 | > 5.12 | 0.97 | > 2 | 0.989 | > 5 | 0.983 | > 10 |
| IMR-5 (neuroblastoma, adherent) | 0.885 |  | 0.992 | > 10 | 0.989 | > 2 | 0.827 | 2.49 | 0.892 | 16.9 | 0.383 | 0.504 | 0.969 | > 4 | 0.918 | > 5.12 | 0.936 | > 5.12 | 0.991 | > 2 | 0.972 | > 5 | 0.906 | 9.83 |
| IST-SL1 (small cell lung carcinoma, semi-adherent) | 0.926 | > 8 | 0.959 | > 10 | 0.979 | > 2 | 0.97 | > 5.12 | 0.889 | > 20 | 0.904 | > 16 | 0.963 | > 4 | 0.963 | > 5.12 | 0.949 | > 5.12 | 0.855 | 1.67 | 0.979 | > 5 | 0.964 | > 10 |
| JM1 (B-cell lymphoma, suspension) | 0.869 | 5.69 | 0.979 | > 10 | 0.987 | > 2 | 0.956 | > 5.12 | 0.872 | 14.6 | 0.198 | 0.151 | 0.954 | > 4 | 0.928 | > 5.12 | 0.865 | 3.48 | 0.964 | > 2 | 0.96 | > 5 | 0.916 | > 10 |
| JVM-2 (lymphoid neoplasm, suspension) | 0.973 | > 8 | 0.975 | > 10 | 0.949 | > 2 | 0.901 | > 5.12 | 0.959 | > 20 | 0.702 | 4.27 | 0.939 | > 4 | 0.888 | > 5.12 | 0.977 | > 5.12 | 0.914 | > 2 | 0.883 | > 5 | 0.908 | > 10 |
| JVM-3 (lymphoid neoplasm, suspension) | 0.987 | > 8 | 0.944 | > 10 | 0.889 | > 2 | 0.987 | > 5.12 | 0.945 | > 20 | 0.886 | > 16 | 0.894 | > 4 | 0.987 | > 5.12 | 0.987 | > 5.12 | 0.914 | > 2 | 0.87 | 4.79 | 0.899 | > 10 |

IC50 is the fitted dose that halves viability relative to control wells, and lower means more sensitive; where the fit passes the top or lowest dose, that dose stands as a limit. For AUC the same curve is integrated over the 256-fold range of doses and scaled to a fraction; it is 1 without any effect and falls as sensitivity rises. An inferred top dose was calculated from the reported fits. For some assays here: An entry number marks a drug with two screens in the source, which often give different values.
